Toxic doses and inconclusive results are not listed. Certain results were filed several times, with different values. This is not the full list of results. An entry can have further records. The values listed for one entry do not match, cause unknown; some may be repeats, others may stem from another dose, organism or construct than stated.
Test system: P388 leukemia ip, CD2F1 mice, survival T/C
Assay: NCI In Vivo Anticancer Drug Screen. Data for tumor model P388 Leukemia (intraperitoneal) in CD2F1 (CDF1) mice
Details: endpoint: median survival time; dose: 5.0 mg/kg/injection; schedule: Q01DX001 (ip); vehicle: saline; higher = longer survival

Question: `COc1cccc2c1C(=O)c1c(O)c3c(c(O)c1C2=O)C[C@@](O)(C(=O)CO)C[C@@H]3OC1CC(N)C(O)C(C)O1` (stereo partly specified) was tested. Which T/C did it give?
Answer: 113 % of control and 150 % of control

— PubChem BioAssay AID330 (DTP/NCI, 2004)
